Consider 55 compounds from ChEMBL document CHEMBL4888484, “Replenishing the malaria drug discovery pipeline: Screening and hit evaluation of the MMV Hit Generation Library 1 (HGL1) against asexual blood stage Plasmodium falciparum ,using a nano luciferase reporter read-out” (2022).

Out of some 150,000 compounds screened, about 540 (0.36%) showed an effect of 50% or more. This is one part of the list.

One may read the % Inhibition as the drop in the measured response relative to a control, in per cent.

In this experiment the test system is Plasmodium falciparum. Briefly: Primary screen in NF54 nanoGlo assay, in single point, at 2uM, 72h; a lower Z score goes with more inhibition. The experiment is classed as functional, Erythrocyte. To be noted: timepoint 72 hour.
In the case of `CCn1nc(C)c(CN2C[C@@H](CO)[C@H](NC(=O)C3CCC3)C2)c1C`, the “% Inhibition” value was -14% and the Z score stood at 1.98.
For `CCCNc1ccccc1C(=O)N[C@H]1CCNC1=O` the same measures were 6% and -0.77.
The like results for `Cc1c(C(=O)OCC2(C#N)CCOCC2)cnn1C` were, in that order, -2% and 0.21.
As for `O=C(NS(=O)(=O)c1c(Cl)ccc(F)c1F)[C@H]1CC[C@H](c2ccccc2)C1`, the “% Inhibition” value is listed as -14% and the Z score is 1.86.
The like results for `CC(C)(C)C(=O)NC[C@H](O)c1cccs1` were, in that order, -5% and 0.92.
For `Cc1ccc(NC(=O)c2sc(NC3CCCCC3)nc2C)c(F)c1` the same measures were -11% and 1.43.
The like results for `O=C(N1CCOCC1)N1CCC[C@H](NCC(F)(F)F)C1` were, in that order, -5% and 0.61.
For the compound `OCCn1ncc2c1CN(c1ncccc1F)C2`, the “% Inhibition” value is reported as -3% and the Z score came out at 0.33.
For `NCCOc1ccccc1Br` the same measures were -12% and 1.11.
For `COc1ccnc(NC(=O)c2nc(C)ncc2Cl)c1` the same measures were -2% and 0.31.
The like results for `CC(C)N(C(=O)c1cc(O)nc2ccccc12)C1CC1` were, in that order, 33% and -0.94.
Consider `C[C@@H](Cc1cn(Cc2ccoc2)nn1)c1ccccc1`, for which the “% Inhibition” value is -5% and the Z score is on record as 0.88.
For `CCc1c(C)nc(N)nc1NCc1cnn(CC)c1` the same measures were 1% and -0.1.
For `CC(C)Cn1cncc1CN(Cc1ccc(O)cc1)C1CC1` the same measures were 7% and -1.43.
For `COc1ccc(C(=O)c2c[nH]c(C(=O)NC[C@H]3CCCO3)c2)cc1` the same measures were 39% and -5.06.
Take `COc1ccc(-c2nnc(C[C@@H]3C[C@@H](C(C)C)[C@H](CN4CCN(C)CC4)C=C3C)o2)cc1`: the “% Inhibition” value is -10% and the Z score is listed as 1.6.
The like results for `Cc1ccc(NC(=O)CN2Cc3ccccc3C2)cc1N1CCCS1(=O)=O` were, in that order, -7% and 0.72.
The like results for `CN1CCN(C(=O)c2ccc(F)c(F)c2)[C@H]2CS(=O)(=O)C[C@H]21` were, in that order, -12% and 1.55.
The like results for `COc1ccc(-c2ccc3nc(-c4cccc5c4OCO5)oc3c2)c(OC)c1OC` were, in that order, -2% and 0.3.
Turning to `CN(CC(=O)NCCN1CCCCC1)c1nnc(N2CCCCC2=O)s1`, the “% Inhibition” value is reported as -8% and the Z score is 1.45.
For the compound `Cc1nc(C)c(C(=O)N2CC[C@H]3[C@H](CCC(=O)N3CCc3ccccn3)C2)o1`, the “% Inhibition” value is listed as -11% and the Z score is on record as 1.34.
The like results for `Cc1cccc(CC2(O)CCN(C(=O)Cc3ccoc3)CC2)c1` were, in that order, -13% and 1.4.
For `Cc1nc(O)cc(CCn2ccnc2-c2cc3c(cc2Cl)OCO3)n1` the same measures were -1% and 0.08.
For `CCNC(=O)[C@@H]1C[C@H](NCc2cc(F)ccc2F)CN1Cc1ccccc1Cl` the same measures were 12% and -1.54.
On to `O=C(c1ccc(Cl)o1)N(C[C@H]1CCCO1)c1ccnnc1`, for which the “% Inhibition” value came to 2% and the Z score is -0.26.
For `OC[C@H]1CCCN1c1nccc(C(F)(F)F)n1` the same measures were -10% and 1.33.
As to `O=C(N[C@@H](Cc1ccccc1)C(=O)O)c1cccn1C1CC1`, the “% Inhibition” value is recorded as -11% and the Z score came to 1.58.
The like results for `COCC1(CNS(=O)(=O)c2cn[nH]c2)CCCC1` were, in that order, 0% and -0.03.
As for `CCCN(CC1CC1)C(=O)c1coc2ccccc12`, the “% Inhibition” value was found to be 11% and the Z score was -1.05.
Regarding `CC(NCc1nnc(C2CC2)n1C)C(C)n1cccn1` (stereo not given), the “% Inhibition” value was -4% and the Z score turned out to be 0.44.
For `Clc1cc(Cl)c2oc(N3CC(n4ccnn4)C3)nc2c1` the same measures were -2% and 0.23.
The like results for `Cn1nncc1NC(=O)N1CCn2nc(C(F)(F)F)cc2C1` were, in that order, 0% and 0.02.
With `COc1nc2c(cc1CNC(=O)c1ccccc1F)C(=O)N(C1CCCC1)C2`, the “% Inhibition” value is listed as -17% and the Z score turned out to be 2.14.
For `CN1CCC[C@H](Nc2ccc(Oc3nncc4ccccc34)c(Cl)c2)C1=O` the same measures were -3% and 0.37.
For `O=C(COC[C@H]1CCOC1)Nc1ccc(-c2ccccc2)cn1` the same measures were -9% and 1.23.
For `Cc1cc(=O)[nH]c2cc(C(=O)NC[C@]3(c4nccn4C)NC(=O)NC3=O)ccc12` the same measures were -22% and 2.39.
As for `CC(C)(C)Oc1ccncc1NCc1cncs1`, the “% Inhibition” value was -7% and the Z score amounted to 1.34.
For `COc1ccccc1CN1CCC(C(=O)N2CCCC2)CC1` the same measures were -13% and 1.68.
Regarding `O=C(NC[C@H]1CCN(c2cccc(Cl)c2)C1)c1cnc(-c2cccnc2)nc1`, the “% Inhibition” value is -10% and the Z score came to 1.62.
The like results for `Cc1ccc(C(=O)NCCc2ncc(C)n2C2CCCC2)cn1` were, in that order, 0% and -0.05.
For `CC[C@H](C)C(=O)Nc1cc(S(=O)(=O)N2CCCC2)ccn1` the same measures were -21% and 2.7.
The like results for `Cc1cc(NCc2ccc(CO)cc2)ccc1-n1nnnc1C(C)C` were, in that order, 1% and -0.14.
Consider `Cn1ncc2c(=O)[nH]c(N3CC4(CCCCC4)[C@H]3c3ccccc3)nc21`, for which the “% Inhibition” value is -2% and the Z score worked out at 0.23.
For `C[C@]1(c2ccccc2)CCC(=O)N(Cc2ccno2)C1` the same measures were -8% and 1.57.
The like results for `CCOc1cc(N2CCOCC2)c(OCC)cc1NC(=O)c1ccc(Oc2ccccc2)cc1` were, in that order, -9% and 1.63.
For `Cc1cc(C2(c3ccc(O)c(C)c3)C(=O)N(Cc3cccc4ccccc34)c3ccccc32)ccc1O` the same measures were 0% and -0.08.
Regarding `COc1cc(NC(=O)CS(=O)(=O)c2ccc(N3CCCC3=O)cc2)cc(OC)c1OC`, the “% Inhibition” value was determined as 1% and the Z score was -0.12.
For `O=C(c1ccc(Br)cc1F)N1CCCc2cc(S(=O)(=O)N3CCCC3)ccc21` the same measures were -6% and 0.54.
The like results for `Cc1cc(-n2cnnc2CCn2cccn2)n(C)n1` were, in that order, 5% and -0.87.
The like results for `CN(C)c1cc(O[C@H]2CCN(C(=O)c3cccc4[nH]ccc34)C2)ncn1` were, in that order, -13% and 1.73.
As for `O=C(Cc1csc(Cc2cccc(Cl)c2)n1)NCc1ccc[nH]1`, the “% Inhibition” value is reported as -1% and the Z score worked out at 0.21.
On to `COc1cc2cc(CNC[C@@H]3CCCN4CCCC[C@H]34)c(=O)n(CC3CCCCC3)c2cc1OC`, for which the “% Inhibition” value was -3% and the Z score worked out at 0.45.
The like results for `Cc1cccc(OCC(=O)N2CCC[C@H](Oc3nccnc3C#N)C2)c1` were, in that order, -13% and 2.22.
For `COC(=O)[C@@H](C)NCc1cnn2ccccc12` the same measures were -11% and 1.23.
The like results for `CCCc1nn(-c2cccc(Cl)c2)c(N2CCN(C)CC2)c1CN(Cc1ccccc1F)C(C)C` were, in that order, -17% and 1.54.
